assay: soluble on expression in E. coli; label from the status in PepcDB or PDB records

| Sequence | soluble on expression in E. coli |
| --- | --- |
| ASMTDQQAEARAFLSEEMIAEFKAAFDMFDADGGGDISTKELGTVMRMLGQNPTKEELDAIIEEVDEDGSGTIDFEEFLVMMVRQMKEDAKGKSEEELANCFRIFDKNADGFIDIEELGEILRATGEHVTEEDIEDLMKDSDKNNDGRIDFDEFLKMMEGVQ | soluble |
| ASVPREVEHFSRYSPSPLSMKQLLDFGSENACERTSFAFLRQELPVRLANILKEIDILPTQLVNTSSVQLVKSWYIQSLMDLVEFHEKSPDDQKALSDFVDTLIKVRNRHHNVVPTMAQGIIEYKDACTVDPVTNQNLQYFLDRFYMNRISTRMLMNQHILIFSDSQTGNPSHIGSIDPNCDVVAVVQDAFECSRMLCDQYYLSSPELKLTQVNGKFPDQPIHIVYVPSHLHHMLFELFKNAMRATVEHQENQPSLTPIEVIVVLGKEDLTIKISDRGGGVPLRIIDRLFSYTYSTAPTPVMDNSRNAPLAGFGYGLPISRLYAKYFQGDLNLYSLSGYGTDAIIYLKALSSESIEKLPVFNKSAFKHYQMSSEADDWCIPSREPKNLAKEVAM | soluble |
| GERVKEDSFCCVISMHDGIVLYTTPSITDVLGYPRDMWLGRSFIDFVHLKDRATFASQITTGIPIAESRGSVPKDAKSTFCVMLRRYRGLKSGGFGVIGRPVSYEPFRLGLTFREAPEEARPDNYMVSNGTNMLLVICATPIKSSYKVPDEILSQKSPKFAIRHTATGIISHVDSAAVSALGYLPQDLIGRSIMDFYHHEDLSVMKETYETVMKKGQTAGASFCSKPYRFLIQNGCYVLLETEWTSFVNPWSRKLEFVVGHHRVFQGPKQCNVFEAAPTCKLKISEEAQSRNTRIKEDIVKRLAETVSRPSDTVKQEVSRRCQALASFMETLMDEVSRADLKLELPHENELTVSERDSVMLGEISPHH | soluble |
| MATVYDVPADLLIKRVAERLKDMVAPPEWAKYVKTGVHKERSPEQDDWWYLRLASIFRRVYIDGPVGIERLRTFYGGRKRRGSKPPKFRKGSGAIVRNALHQLEQLGFVKKTREGRVVTPMGRSFLDKVATELKSELVSEIPALEKY | not soluble |
| MEGLKQLKDLPAETPDGKKVMLAANIGTPKDVASALANGAEGVGLFRTEFLYMDRNSLPSEEEQFEAYKEVVEKMGGRPVTIRTLDIGGDKELPYLDMPKEMNPFLGYRAIRLCLDRPDIFKTQLRAILRASAYGNVQIMYPMISSVEEVRKANSILEEVKAELDREGVKYDKEIKVGIMVEIPSAAVTADILAKEVDFFSIGTNDLTQYTLAVDRMNEHVKEYYQPFHPAILRLVKMVIDAAHKEGKFAAMCGEMAGDPLAAVILLGLGLDEFSMSATSIPEIKNIIRNVEYEKAKEIAEKALNMSEAREIEKMMKDVIKDIG | soluble |
| MGSDKIHHHHHHMITIKKGLDVPVKGAPQQVIHDGPSIKTVATLGEEFVGMRPTMFVKVGDRVKKGQVIFEDKKNPGVIFTAQAAGVVKEINRGEKRVLQSVVIDVDGYDQETFTVYPATEFASLARENVVKNLVDSGLWTALRTRPFSKVPAIDSEPSAIFVSAMDTNPLAANPEIVIGEQSEAFKNGLTILSRLTSGEVFVSKAPGANIPVDSNATVTEFAGKHPAGLVGTHIHFLKSASAERFVWHVGYQDVIAIAKLFTTGEIDNTRVISLAGPAATNPRLVRTVLGASTAELSAGETAEGELRVVSGSLLMGATASAVHGYLGRYNVQVSLILEGREKEFIGYMYPGPNKFSVTRAYMSHFFSSKLFSMTTTTNGSSRAMVPIGNFERVMPLDILPTLFLRDICSGDTDGAQQLGALELDEEDLALCTFVCPGKTDYGVILRDCLTTIEKEG | not soluble |
| QVQLVQSGAEVKKPGSSVKVSCKASGGTFSNYAINWVRQAPGQGLEWMGNIEPYFGTANYAQKFQGRVTITADESTSTAYMELSSLRSEDTAVYYCARYFMSYKHLSDYWGQGTLVTVSSASTKGPSVFPLAPSSKSTSGGTAALGCLVKDYFPEPVTVSWNSGALTSGVHTFPAVLQSSGLYSLSSVVTVPSSSLGTQTYICNVNHKPSNTKVDKKVEPKSEFEQKLISEEDLNGAPHHHHHH | soluble |
